# Measured values taken from PubChem BioAssay AID1347165 (National Center for Advancing Translational Sciences (NCATS), 2019).
# About 5,700 (2.6%) of roughly 220,000 compounds were called active. The inconclusive results got no clear call from the source; some entries with a clear call stand among them for comparison. Calls come from the whole dose curve; as a rule, active = well fitted inhibition curve with a large enough effect; inconclusive = small, poorly fitted or top-dose-only effect; inactive = no such curve, though single readings can be large or run the other way. A potency beside an inconclusive call is a rough fit, not a confirmed value.
# Target: Lysine-specific demethylase 5B (Homo sapiens) (UniProt Q9UGL1)
# Test: Primary screen for KDM5B Histone Demethylases FDH-coupled qHTS; note: nearly all actives have a fitted effect of over 70% in size
# Details: FDH-coupled NADH fluorescence (FDH is formaldehyde dehydrogenase); series mostly up to 57.7 µM
# How it was run: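 KDM5BΔAP (200 nM final) in 50 mM HEPES pH 7.5, 0.01% Tween-20 was preincubated 10 min at RT with compound over a concentration range. Substrate mix (H3K4me3 12.5 µM, α-KG 25 µM, Fe²⁺, ascorbate, NAD⁺, FDH) was added, and NADH fluorescence change over 30 min gave dose-response curves.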
# Potency is the fitted concentration of half-maximal effect; tags give direction and shape of the fitted curve.
# Chain of UniProt Q9UGL1 (Q9UGL1 whole entry, looked up): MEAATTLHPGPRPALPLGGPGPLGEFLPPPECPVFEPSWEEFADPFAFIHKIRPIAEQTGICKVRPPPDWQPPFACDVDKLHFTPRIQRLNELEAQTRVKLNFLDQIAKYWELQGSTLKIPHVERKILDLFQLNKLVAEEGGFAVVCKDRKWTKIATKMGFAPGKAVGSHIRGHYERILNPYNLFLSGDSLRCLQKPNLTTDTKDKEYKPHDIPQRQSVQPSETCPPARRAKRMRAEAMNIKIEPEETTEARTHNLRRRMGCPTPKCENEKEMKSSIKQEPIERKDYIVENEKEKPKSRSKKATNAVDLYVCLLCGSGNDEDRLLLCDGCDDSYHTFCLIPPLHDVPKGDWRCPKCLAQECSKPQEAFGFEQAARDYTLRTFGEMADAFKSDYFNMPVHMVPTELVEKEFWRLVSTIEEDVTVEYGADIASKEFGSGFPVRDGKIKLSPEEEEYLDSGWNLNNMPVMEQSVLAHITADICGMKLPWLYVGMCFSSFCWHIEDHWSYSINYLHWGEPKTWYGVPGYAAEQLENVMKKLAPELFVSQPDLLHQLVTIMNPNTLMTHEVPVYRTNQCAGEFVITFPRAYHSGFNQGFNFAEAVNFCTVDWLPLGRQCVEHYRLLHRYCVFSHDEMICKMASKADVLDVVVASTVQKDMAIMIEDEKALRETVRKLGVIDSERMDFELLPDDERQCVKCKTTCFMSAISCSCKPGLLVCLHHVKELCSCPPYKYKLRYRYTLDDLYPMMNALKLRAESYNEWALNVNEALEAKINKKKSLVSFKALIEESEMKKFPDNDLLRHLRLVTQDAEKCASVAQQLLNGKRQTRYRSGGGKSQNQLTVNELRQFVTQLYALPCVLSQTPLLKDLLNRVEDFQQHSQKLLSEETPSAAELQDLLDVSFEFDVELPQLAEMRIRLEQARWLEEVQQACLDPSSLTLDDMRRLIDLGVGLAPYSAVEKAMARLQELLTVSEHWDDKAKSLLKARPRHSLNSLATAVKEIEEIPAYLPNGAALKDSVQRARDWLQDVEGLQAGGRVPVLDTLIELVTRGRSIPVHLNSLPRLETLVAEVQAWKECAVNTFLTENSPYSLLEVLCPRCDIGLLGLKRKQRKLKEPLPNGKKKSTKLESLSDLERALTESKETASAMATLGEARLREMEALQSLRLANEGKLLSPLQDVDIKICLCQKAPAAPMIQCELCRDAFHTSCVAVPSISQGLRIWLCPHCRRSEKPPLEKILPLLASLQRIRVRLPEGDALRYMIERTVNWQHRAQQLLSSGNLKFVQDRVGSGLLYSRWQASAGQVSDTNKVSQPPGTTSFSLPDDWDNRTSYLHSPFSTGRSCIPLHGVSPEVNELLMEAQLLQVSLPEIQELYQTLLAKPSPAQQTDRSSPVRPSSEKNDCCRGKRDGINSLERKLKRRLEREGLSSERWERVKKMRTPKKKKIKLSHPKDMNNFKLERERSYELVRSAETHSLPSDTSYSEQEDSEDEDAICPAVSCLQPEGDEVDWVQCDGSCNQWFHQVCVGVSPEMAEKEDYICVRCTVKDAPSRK
row,Structure (SMILES),Potency
1,COc1ccccc1Oc1c(C)oc2cc(OC(=O)C(C)(C)C)ccc2c1=O,"inconclusive: 28.2 µM [inhibitor, partial curve, poor fit]"
2,O=C(/C=C/c1ccccc1)OCC(=O)c1ccc(Br)s1,inactive
3,O=C(Nc1ccccc1)N1CCOC(CN(C(=O)c2ccco2)C2CCCC2)C1 (stereo unspecified),inactive
4,Cc1ccc(-n2ncc3c(N4CCC(Cc5ccccc5)CC4)ncnc32)cc1C,"inconclusive: 28.2 µM [inhibitor, partial curve, poor fit]"
5,CN1CCN(C(=O)c2cn[nH]n2)CC12CCC(=O)N(CCO)CC2 (stereo unspecified),"inconclusive: 20 µM [inhibitor, single point]"
6,Cc1ccc(OC(=O)CSc2nnc(-c3ccc4c(c3)OCO4)o2)cc1,"inconclusive: 25.1 µM [inhibitor, single point]"
7,O=C(NC1CCCCC1)c1ccccc1-c1ncc(-c2ccccc2F)o1,"inconclusive: 25.1 µM [inhibitor, partial curve, poor fit]"
8,O=C(NC[C@H]1OC[C@@H](NCc2ncc[nH]2)[C@@H]1O)C1CCCC1,"inconclusive: 39.8 µM [inhibitor, partial curve, poor fit]"
9,COC(=O)c1c(C)oc2ccc(N(C(=O)c3ccncc3)S(=O)(=O)c3cc(C)ccc3C)cc12,"inconclusive: 28.2 µM [inhibitor, partial curve, poor fit]"
10,Cc1cccc(NC(=O)NCc2nc(-c3ccccc3)oc2C)c1C,inactive
11,CS(=O)(=O)N1CCC(C(=O)Nc2ccc(Oc3ccccc3)cc2)CC1,inactive
12,COc1ccc(-c2cnc3[nH]cc(CC(=O)NC4CCC(O)CC4)c3c2)cc1 (stereo unspecified),"inconclusive: 39.8 µM [inhibitor, partial curve, poor fit]"
13,Cc1ccc(C)c(NC(=O)Cn2c(=O)n(-c3ccccc3)c(=O)c3c2cc(C)n3C)c1,inactive
14,O=C(Nc1ccc(Cc2ccncc2)cc1)c1ccc(Br)cc1,inactive
15,COc1ccc2c(c1)c(/C=N/Nc1nc3ccccc3[nH]1)c(C)n2C,"inconclusive: 11.2 µM [inhibitor, partial curve, poor fit]"
16,O=C(CSc1ccc(Cl)cc1)Nc1ccc2c(c1)OCCCO2,inactive
17,CC(=O)/C=C/c1ccc2ccccc2n1,"inconclusive: 25.1 µM [inhibitor, single point]"
18,O=C1c2cnc(-c3cc4ccccc4o3)nc2OCCN1CC1CC1,inactive
19,COC(=O)[C@H](NC(=O)C1=C[C@@H](NC(=O)Nc2ccc(C)cc2)[C@@H](O)[C@H](O)C1)C(C)C,inactive
20,Cc1ccc(CN2CC[C@@H]3[C@H]2C(=O)NC[C@H](CCC(=O)N2CCN(C)CC2)N3C)cc1,inactive
21,COc1ccccc1-c1ccc2c(n1)CN(Cc1ccccc1C)C(=O)CO2,"inconclusive: 31.6 µM [inhibitor, single point]"
22,Cc1cnc(CN2CC3(CCCN(c4ccc(C#N)cn4)C3)CCC2=O)cn1 (stereo unspecified),"inconclusive: 12.6 µM [inhibitor, partial curve]"

row,Structure (SMILES),Potency
1,CCCOC1CCCN(C(=O)c2cc(Cl)ccc2OC2CCN(C(C)=O)CC2)C1 (stereo unspecified),inactive
2,CSCCC(NC(=O)c1ccc(-c2ccc(Cl)cc2)s1)C(=O)O (stereo unspecified),"inconclusive: 22.4 µM [inhibitor, partial curve, poor fit]"
3,Cc1ccc2c(CNCc3ccc(C)o3)c(C(=O)O)n(Cc3ccc(F)cc3)c2c1,"inconclusive: 31.6 µM [inhibitor, partial curve, poor fit]"
4,CC(NC(=O)c1cc2ccccc2[nH]1)c1ccccc1 (stereo unspecified),"inconclusive: 39.8 µM [inhibitor, single point]"
5,COc1ccc(C(=O)Oc2c(Sc3ccc(C)cc3)c(C)nn2C(C)(C)C)cc1OC,"inconclusive: 2 µM [inhibitor, partial curve, poor fit]"
6,COc1ccccc1CCC(=O)N1CCC[C@H]1c1nc(-c2ccc(OC)c(OC)c2)no1,"inconclusive: 28.2 µM [inhibitor, partial curve, poor fit]"
7,Cc1ccc(C(=O)Oc2cc(-c3ccc4c(c3)OCO4)cc(=O)c3c(C)oc(C)c23)cc1,"inconclusive: 17.8 µM [inhibitor, partial curve, poor fit]"
8,COc1ccc(OCCn2c3ccccc3n3nc(CCC(=O)O)c(=O)nc23)cc1,inactive
9,CC(=O)c1ccc(NS(=O)(=O)c2ccc(-n3cccn3)cc2)cc1,"inconclusive: 1.26 µM [inhibitor, partial curve, poor fit]"
10,CSc1cccc(NC(=O)c2ccc3c(c2)N(C)C2CCCCN2C3=O)c1 (stereo unspecified),"inconclusive: 35.5 µM [inhibitor, partial curve, poor fit]"
11,CCn1ccc(C(=O)NC2CCN(c3cc(-c4ccccc4)[nH]n3)CC2)n1,"inconclusive: 31.6 µM [inhibitor, partial curve, poor fit]"
12,CCc1ccc(C(NC(=O)Cn2nc(C)c3ccccc3c2=O)C(C)C)cc1 (stereo unspecified),inactive
13,O=C(Nc1ccc2oc(-c3cccc(Cl)c3)nc2c1)c1ccc(F)cc1,inactive
14,COC(=O)CNC(=O)c1cc(-c2ccccc2)nc2ccccc12,"inconclusive: 39.8 µM [inhibitor, single point]"
15,O=C(Cc1ccccc1)Nc1sc2c(c1C(=O)Nc1ccc(Br)cc1)CCCC2,"inconclusive: 1.78 µM [inhibitor, partial curve, poor fit]"
16,Cc1nn(-c2ccc(F)cc2)c(Oc2ccc(F)cc2F)c1CCC(=O)NCC1CC1,inactive
17,N#Cc1nc(-c2ccccc2F)oc1N1CCN(C(=O)c2cccs2)CC1,"inconclusive: 11.2 µM [inhibitor, partial curve, poor fit]"
18,COCCCn1c(-c2ccc(S(=O)(=O)N3CCOCC3)cc2)csc1=Nc1ccccc1,"inconclusive: 39.8 µM [inhibitor, single point]"
19,COc1ccc(OC)c(/C=C/C(=O)OC2(C(F)(F)F)C(=O)Nc3c2ccc2ccccc32)c1 (stereo unspecified),"inconclusive: 28.2 µM [inhibitor, partial curve, poor fit]"
20,O=C(NCCN1CCCCC1)c1ccc(Cn2c(SCc3ccccc3)nc3cccnc32)cc1,"inconclusive: 15.8 µM [inhibitor, partial curve, poor fit]"
21,COc1ccc(/C=C2\CCn3c2nc2cc(C(=O)O)ccc2c3=O)cc1,"inconclusive: 35.5 µM [inhibitor, partial curve, poor fit]"
22,Cc1ccc(-c2csc(=Nc3ccccc3)n2Cc2ccc3c(c2)OCO3)cc1,"inconclusive: 28.2 µM [inhibitor, partial curve, poor fit]"

row,Structure (SMILES),Potency
1,CCN1CCN(Cc2nc3c(c(=O)n(C)c(=O)n3C)n2CCOC)CC1,inactive
2,COc1cc2c(cc1OC)CN(Cc1cc(=O)c(OCc3ccc(Cl)cc3Cl)co1)CC2,inactive
3,COc1ccc2c(C)c(CCC(=O)N3CCN(C(C)=O)CC3)c(=O)oc2c1,"inconclusive: 22.4 µM [inhibitor, partial curve, poor fit]"
4,CCN(Cc1cccs1)C(=O)c1ccc(NS(C)(=O)=O)cc1,inactive
5,Cc1ccccc1OCCSc1nc2ccc(NC(=O)c3cccs3)cc2s1,"inconclusive: 35.5 µM [inhibitor, partial curve, poor fit]"
6,Cn1c(=O)cc(SCC(=O)N2CCN(c3ccccc3F)CC2)c2ccc(Cl)cc21,"inconclusive: 25.1 µM [inhibitor, single point]"
7,Cc1cc(C(=O)NCC(F)(F)F)c2c(C3CCNCC3)noc2n1,inactive
8,COC(=O)c1ccccc1-c1ccc(C(C)=O)o1,inactive
9,CC(C)(C)NC(NC(=O)c1cccc(Cl)c1)C(Cl)(Cl)Cl (stereo unspecified),inactive
10,CCCc1cc(=O)oc2cc(OCC(=O)NCC(C)C)ccc12,"inconclusive: 22.4 µM [inhibitor, partial curve, poor fit]"
11,O=C(COC(=O)C1CCOCC1)c1ccc2c(c1)OCO2,inactive
12,Cc1cc(C)cc(Oc2nc3ccccn3c(=O)c2/C=C(\C#N)c2nc3ccccc3s2)c1,"inconclusive: 28.2 µM [inhibitor, partial curve, poor fit]"
13,CC(C(=O)N(C)C1(C#N)CCCCC1)n1cnc2c1c(=O)n(C)c(=O)n2C (stereo unspecified),inactive
14,CC/C(=N/NC(=O)c1ccccc1O)c1c(C)[nH]n(-c2ccccc2)c1=O,"inconclusive: 6.31 µM [inhibitor, full curve, poor fit]"
15,COc1ccccc1NC(=O)c1cc2c(C)nn(-c3ccccc3)c2s1,"inconclusive: 35.5 µM [inhibitor, partial curve, poor fit]"
16,CCN(C)C(=O)CC1=CSC2=NC(C)=C(C(=O)OC(C)(C)C)C(c3ccc(Cl)cc3)N12 (stereo unspecified),"inconclusive: 31.6 µM [inhibitor, partial curve, poor fit]"
17,Cc1noc(-c2cccc(F)c2)c1C(=O)NCCc1ccc(F)cc1,inactive
18,CCCc1noc(-c2cccn3c(CNC(=O)c4ccco4)nnc23)n1,active: 25.1 µM
19,CCc1ccccc1NC(=O)C(C)n1c(=O)cc(C)c2c(C)nn(-c3ccccc3)c21 (stereo unspecified),inactive
20,COC(=O)c1ccc(CSc2nc3c([nH]c4ccccc43)c(=O)n2-c2cccc(Cl)c2)o1,"inconclusive: 39.8 µM [inhibitor, single point]"
21,CCN1c2cc(C(=O)NCc3cccc(F)c3)ccc2C(=O)N2CCCCCC21 (stereo unspecified),"inconclusive: 20 µM [inhibitor, partial curve, poor fit]"
22,C[C@@H](NC(=O)C1=C[C@@H](NC(=O)CC2(CC(=O)O)CCCC2)[C@@H](O)[C@H](O)C1)C(N)=O,"inconclusive: 28.2 µM [inhibitor, partial curve]"
